Hit rate of the full screen: of about 370,000 compounds, about 150 (0.041%) were called active. The inconclusive results got no clear call from the source; some entries with a clear call stand among them for comparison. Calls come from the whole dose curve; as a rule, active = well fitted inhibition curve with a large enough effect; inconclusive = small, poorly fitted or top-dose-only effect; inactive = flat fitted curve, though single readings scatter. No potency is given beside an inconclusive call; the fits are too rough.
target: Beta-lactamase (Escherichia coli (strain K12)) (UniProt P00811); assay: qHTS Inhibitors of AmpC Beta-Lactamase (assay with detergent); details: AmpC hydrolysis of nitrocefin, absorbance 480 nm, 0.01% Triton; series mostly up to 114 µM; note: nearly all actives have a fitted effect of over 25% in size
How it was run: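 AmpC (5.3 nM in the dispensed reagent) in 20 mM phosphate pH 7.0 with 0.01% (detergent screen) or 0.0001% Triton X-100 was preincubated with compounds for 15 min at room temperature. Nitrocefin was then added from an 800 uM solution, and hydrolysis was followed at 480 nm.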
Potency is the fitted concentration of half-maximal effect; tags give direction and shape of the fitted curve.

UniProt P00811, sequence (P00811 whole entry, looked up): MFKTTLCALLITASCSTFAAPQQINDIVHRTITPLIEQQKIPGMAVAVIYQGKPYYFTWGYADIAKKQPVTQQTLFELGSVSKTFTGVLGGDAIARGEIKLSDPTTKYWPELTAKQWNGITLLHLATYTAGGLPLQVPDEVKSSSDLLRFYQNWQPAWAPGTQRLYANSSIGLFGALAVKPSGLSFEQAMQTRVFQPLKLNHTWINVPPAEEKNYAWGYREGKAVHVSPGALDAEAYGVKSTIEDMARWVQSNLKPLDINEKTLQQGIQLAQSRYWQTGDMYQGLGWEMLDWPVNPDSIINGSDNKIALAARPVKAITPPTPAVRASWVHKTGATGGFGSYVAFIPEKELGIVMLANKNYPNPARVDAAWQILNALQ

| Compound | Potency |
| --- | --- |
| Cc1nn(-c2ccc(N3CCCC3)nn2)c(C)c1CCC(=O)Nc1ccc(F)cc1F | inactive |
| COc1ccc(NC(=O)c2ccccc2-c2ccc(C(F)(F)F)cc2)cc1S(=O)(=O)N1CCOCC1 | inactive |
| COc1ccc(CNC(=O)Cn2ncc3c([nH]c4ccccc43)c2=O)cc1 | inactive |
| COc1ccc(NC(=O)C23CC4CC(C2)CC(c2ccc(C)cc2)(C4)C3)cc1 | inconclusive [inhibitor, partial curve] |
| CCOC(=O)C(=NCCCN(C)C)NNc1ccc(Br)cc1 | inconclusive [inhibitor, partial curve] |
| CC1CCN(c2c(NCc3ccc(C(=O)N4c5ccccc5CC4C)cc3)c(=O)c2=O)CC1 (centres undefined) | inconclusive [inhibitor, single point] |
| Cc1ccc(-c2ccc(C(=O)Nc3ccccc3)o2)c2ccccc12 | inconclusive [inhibitor, full curve, poor fit] |
| O=C(c1cccc(Oc2ccccc2)c1)N1CCOCC1 | inconclusive [inhibitor, single point] |
| C=CCN(CC=C)Cc1c(C)[nH]c2ccc(C(=O)OCC)cc2c1=O | inconclusive [inhibitor, full curve, poor fit] |
| COCCNC(=O)c1onc(CSc2ccccc2)c1C(=O)NCCOC | inconclusive [inhibitor, single point] |
| CCCn1cnc2c(=O)oc3ccccc3c21 | inconclusive [inhibitor, single point] |
| Nc1cc(=O)nc(SCC(=O)Nc2ccc(F)cc2)n1CCc1ccccc1 | inactive |
| COc1ccc(Oc2ccc(/C=C/C(=O)c3cccc(OC)c3)cc2[N+](=O)[O-])cc1 | inactive |
| O=c1ccc2cc(O[C@@H]3O[C@@H](CO)[C@H](O)[C@@H](O)[C@@H]3O)c(O)cc2o1 | inactive |
| Cc1cc2oc3c(c(=O)c2cc1C)C1(C(=O)N(C)c2ccccc21)N(CCO)C3=O (centres undefined) | inactive |
| CN1CCN(S(=O)(=O)c2ccc(NC(=O)c3ccc(Br)s3)cc2)CC1 | inconclusive [inhibitor, full curve, poor fit] |
| CCn1c(CNC(=O)c2ccc(OC)cc2)nnc1SCC(=O)Nc1ccc(C)cc1 | inactive |
| Cc1cc(C)nc(SCC(=O)N/N=C/c2cccn2-c2cccc(C(F)(F)F)c2)n1 | inconclusive [inhibitor, single point] |
| CCN(CC)CCNc1nc2nonc2nc1NCCN(CC)CC | inconclusive [inhibitor, partial curve] |

Reference: PubChem BioAssay AID485294 (National Center for Advancing Translational Sciences (NCATS), 2010)
